Measured values taken from PMC5892938.
This is one part of the list. The source does not settle which construct or isoform was used.

Target: GST-SBP-ILF3 (Homo sapiens) (UniProt Q12906)
Test: targeted RNA Bind-n-Seq
Details: RBNS binding buffer: 25 mM Tris pH 7.5, 150 mM KCl, 3 mM MgCl2, 0.1% Tween, 0.5 mg/mL BSA, 1 mM DTT; 27 nM protein, 750 pM RNA pool; temperature not stated; high values mean tight binding; sequences stand for … in GGGUAAAAGCGAGGUGAA…CGGGACAAGUAUUAUGGG

Sequence	binding signal (log2 fold change)
UUUUUUUUUUGAGAGUGAAGCACUCUUCUA [tttttgagapaired]	-0.32
UUUUUUUUUUGAGACGGUUUCUGUCUCCGG [tttttgagapaired]	0.44
GUGUGGUGUGUUGGCUUCUAACACAUCGCG [gtspaired]	-0.672
GGUGUGUGUGUUGGAACCUAACACACGCGC [gtspaired]	-0.505
UUUUUUUUUUGAGAUGGUGUCUAUCUUCUA [tttttgagapaired]	0.109
UUUUUUUUUUGAGAGCGUAUCGCUCUUCUG [tttttgagapaired]	0.467
GUGUUGUGUGUUGGAUCCUAACACACAGCG [gtspaired]	-0.636
UUUUUUUUUUGAGACCGCUACGGUCUCCUG [tttttgagapaired]	0.266
UUUUUUUUUUGAGAACGGAUCGUUCUCCUA [tttttgagapaired]	-0.0595
GUGGUUGGUGUUGGCUCCUAACACCAGCCG [gtspaired]	-0.404
GUGGUGUGUGUUGGACCCUAACACACAUCG [gtspaired]	-0.449
GGUGGUUGUGUUGGCACCUAACACAGCCAC [gtspaired]	-0.495
UUUUUUUUUUGAGAUCGGACCGAUCUCCGG [tttttgagapaired]	0.346
UUUUUUUUUUGAGAACGGACCGUUCUCCAG [tttttgagapaired]	0.537
UUUUUUUUUUGAGAGGGAGGCCCUCUCCUA [tttttgagapaired]	0.478
UUUUUUUUUUGAGAUGGUGACCAUCUUCUA [tttttgagapaired]	0.106
UUUUUUUUUUGAGACGGAGGCUGUCUCCUA [tttttgagapaired]	0.953
GUGGUGUGUGUUGGAUUCUAACACACGCUA [gtspaired]	-0.457
UUUUUUUUUUGAGACUGAGUCAGUCUCCGG [tttttgagapaired]	0.406
GUGUGGUGUGUUGGAGCCUAACACAUCGCA [gtspaired]	-0.793
UUUUUUUUUUGAGACGGCGUCCGUUUCCGG [tttttgagapaired]	0.861
UUUUUUUUUUGAGAGCGGGGCGUUCUCCGG [tttttgagapaired]	0.678
GGUUGGUGUGUUGGCACCUAACACAUCAAC [gtspaired]	-0.515
UUUUUUUUUUGAGACCGCUACGGUCUCCUA [tttttgagapaired]	0.321

Sequence	binding signal (log2 fold change)
GUGGUUGGUGUUGGCCUCUAACACCGACCG [gtspaired]	-0.783
UUUUUUUUUUGAGACGGGCGCCGUCUUCUG [tttttgagapaired]	0.784
UUUUUUUUUUGAGACUGAUCCAGUCUCCAG [tttttgagapaired]	0.213
UUUUUUUUUUGAGAGCGGAGCGUUCUCCAG [tttttgagapaired]	0.328
GGUGUUGGUGUUGGCUCCUAACACCAGCGC [gtspaired]	-0.291
UUUUUUUUUUGAGAUGGAUCCUAUCUCCGG [tttttgagapaired]	0.0251
UUUUUUUUUUGAGAUCGAUGCGAUCUCCGG [tttttgagapaired]	0.284
UUUUUUUUUUGAGACGGCAACCGUCUCCAG [tttttgagapaired]	0.47
UUUUUUUUUUGAGAGGGGUACCCUCUCCGG [tttttgagapaired]	0.136
GGUUGGUGUGUUGGACCCUAACACACCAGC [gtspaired]	-0.572
UUUUUUUUUUGAGAUCGAUGCGAUCUCCUG [tttttgagapaired]	0.512
GUUGUGUGUGUUGGACCCUAACACACGCAG [gtspaired]	-0.252
UUUUUUUUUUGAGACUGCUACAGUCUUCUG [tttttgagapaired]	0.525
UUUUUUUUUUGAGAUCGAUGCGAUCUCCAG [tttttgagapaired]	0.121
GGUGGUGGUGUUGGAGCCUAACACCGCCGC [gtspaired]	-0.234
GGUGGUGGUGUUGGAUUCUAACACCAUCGC [gtspaired]	0.0762
UUUUUUUUUUGAGACCGGGGCGGUCUCCGG [tttttgagapaired]	0.552
GGUUGUGGUGUUGGACCCUAACACCGCGAC [gtspaired]	-0.215
GGUGGUUGUGUUGGCAUCUAACACAGCUAC [gtspaired]	-0.703
UUUUUUUUUUGAGAGGGCGACCCUUUCCAG [tttttgagapaired]	0.412
GGUUGUUGUGUUGGCACCUAACACAGCAAC [gtspaired]	-0.412
GUGUGGUGUGUUGGUGUCUAACACACUACA [gtspaired]	-0.342
UUUUUUUUUUGAGAGCGGAACGUUCUCCAG [tttttgagapaired]	-0.0713
UUUUUUUUUUGAGACGGAGGCUGUCUCCAG [tttttgagapaired]	1.16

Sequence	binding signal (log2 fold change)
GUGGUGUGUGUUGGCGCCUAACACAUACUA [gtspaired]	-0.354
UUUUUUUUUUGAGAGGGCAACCCUCUCCUG [tttttgagapaired]	0.581
UUUUUUUUUUGAGAUGGAAACUAUCUCCAG [tttttgagapaired]	0.0357
UUUUUUUUUUGAGAGCGAGGCGUUCUCCGG [tttttgagapaired]	0.465
UUUUUUUUUUGAGAACGUAUCGUUCUUCUA [tttttgagapaired]	-0.138
UUUUUUUUUUGAGAGCGAAUCGUUCUCCGG [tttttgagapaired]	0.0736
GGUGGUUGUGUUGGAUCCUAACACAGCCGC [gtspaired]	-0.0842
UUUUUUUUUUGAGAUCGUAUCGAUCUCCAG [tttttgagapaired]	0.0317
GUGUGUUGUGUUGGAUUCUAACACAGCACA [gtspaired]	0.237
UUUUUUUUUUGAGAUGGCAUCCAUUUCCAG [tttttgagapaired]	0.212
GGUGUGUGUGUUGGCUUCUAACACACGCGC [gtspaired]	-1.14
UUUUUUUUUUGAGACGGACACCGUCUCCUG [tttttgagapaired]	0.62
UUCUCUCUUCCUCCUAGGGAGGAGGGGAGA [ctspaired]	-0.249
GGUGUUGGUGUUGGCAUCUAACACCAGCGC [gtspaired]	-1.04
UUUUUUUUUUGAGACUGCGGCAGUUUCCAG [tttttgagapaired]	0.601
GUGUGGUGUGUUGGAUUCUAACACACCGCG [gtspaired]	-0.567
UUUUUUUUUUGAGAACGGCGCGUUCUCCGG [tttttgagapaired]	0.349
UUUUUUUUUUGAGAUGGGUCCUAUCUCCUA [tttttgagapaired]	0.559
GUUGGUGGUGUUGGACCCUAACACCGCCAG [gtspaired]	-0.268
UUUUUUUUUUGAGAGGGGAUCCUUCUCCAG [tttttgagapaired]	0.106
UUUUUUUUUUGAGACCGGGUCGGUUUCCUA [tttttgagapaired]	0.464
UUUUUUUUUUGAGAUCGUAACGAUCUCCUG [tttttgagapaired]	0.379
GGUUGUGGUGUUGGUGCCUAACACCGCAGC [gtspaired]	-0.6
UUUUUUUUUUGAGACGGUAUCCGUCUCCAG [tttttgagapaired]	0.307

Sequence	binding signal (log2 fold change)
GUGUGGUGUGUUGGUUCCUAACACACCGCG [gtspaired]	-0.355
UUUUUUUUUUGAGAUGGUACCCAUCUCCAG [tttttgagapaired]	0.155
UUUUUUUUUUGAGAACGGUCCGUUCUCCGG [tttttgagapaired]	0.723
UUUUUUUUUUGAGAGCGAUUCGUUCUCCGG [tttttgagapaired]	-0.11
UUUUUUUUUUGAGAUGGUAUCUAUCUCCGG [tttttgagapaired]	0.162
UUCUCUCUUCCUCCGCCGGAGGAGGGGAGA [ctspaired]	-0.393
GUGGUGUGUGUUGGCCUCUAACACACGCCA [gtspaired]	-0.377
UUUUUUUUUUGAGACGGUAGCCGUCUUCUG [tttttgagapaired]	0.675
GGUGUGUGUGUUGGCGCCUAACACACGCGC [gtspaired]	-0.447
GUGUGUGGUGUUGGACCCUAACACCAUACA [gtspaired]	-0.122
GUGUGUUGUGUUGGUCCCUAACACAGCACA [gtspaired]	-0.928
UUUUUUUUUUGAGAUGGUAGCUAUCUCCUG [tttttgagapaired]	0.478
UUUUUUUUUUGAGACUGACUCAGUCUUCUG [tttttgagapaired]	0.181
UUUUUUUUUUGAGAACGAAUCGUUCUCCAG [tttttgagapaired]	-0.258
GUGUGUUGUGUUGGAAUCUAACACAGCGCG [gtspaired]	-0.608
GUGUGGUGUGUUGGCGUCUAACACAUCACG [gtspaired]	-0.624
UUUUUUUUUUGAGAACGGGGCGUUCUUCUG [tttttgagapaired]	0.66
GUGUGUUGUGUUGGUCCCUAACACAACGCG [gtspaired]	-0.604
UUUUUUUUUUGAGAUGGGUGCCAUCUCCGG [tttttgagapaired]	0.369
GUGGUGUGUGUUGGUCUCUAACACAUACUA [gtspaired]	-0.852
UUUUUUUUUUGAGAUGGGGUCCAUUUCCAG [tttttgagapaired]	0.63
GUGUGUUGUGUUGGCGUCUAACACAACACG [gtspaired]	-0.496
UUUUUUUUUUGAGAGCGGUGCGUUCUCCGG [tttttgagapaired]	0.332
UUUUUUUUUUGAGACUGAGACAGUCUCCUA [tttttgagapaired]	0.701

Sequence	binding signal (log2 fold change)
UUUUUUUUUUGAGAUGGAGCCCAUCUCCAG [tttttgagapaired]	0.542
GUGGUGUGUGUUGGAGUCUAACACACGCCG [gtspaired]	-0.332
UUUUUUUUUUGAGAGCGAGACGCUCUCCGG [tttttgagapaired]	0.224
UUUUUUUUUUGAGACCGCUCCGGUCUUCUA [tttttgagapaired]	0.849
GGUUGGUGUGUUGGUAUCUAACACAUCAGC [gtspaired]	-0.801
UUUUUUUUUUGAGAUGGUAGCCAUCUCCAG [tttttgagapaired]	0.351
GGUGGUGGUGUUGGUGUCUAACACCAUCGC [gtspaired]	-0.62
UUUUUUUUUUGAGAGUGUGACAUUCUCCGG [tttttgagapaired]	0.291
GUUGGUGGUGUUGGCUUCUAACACCAUCAA [gtspaired]	-0.271
GUGUGUUGUGUUGGUGCCUAACACAGCACG [gtspaired]	-0.508
UUUUUUUUUUGAGAGGGAAUCCCUCUCCGG [tttttgagapaired]	-0.0222
UUUUUUUUUUGAGACCGACACGGUUUCCGG [tttttgagapaired]	0.553
UUUUUUUUUUGAGACGGUGUCCGUCUCCGG [tttttgagapaired]	0.755
UUUUUUUUUUGAGACCGGGACGGUCUCCUG [tttttgagapaired]	0.844
UUUUUUUUUUGAGACGGCUGCCGUCUCCUG [tttttgagapaired]	1.06
UUUUUUUUUUGAGAGCGGGCCGUUCUCCAG [tttttgagapaired]	0.486
GUGUGGUGUGUUGGUCCCUAACACAUCGCG [gtspaired]	-0.55
UUUUUUUUUUGAGAUGGUGACCAUCUCCGG [tttttgagapaired]	0.23
GUGUGUGGUGUUGGAGCCUAACACCGCACG [gtspaired]	-0.444
UUUUUUUUUUGAGAGCGAUCCGUUCUCCAG [tttttgagapaired]	0.277
UUUUUUUUUUGAGAGUGAAGCACUCUCCGG [tttttgagapaired]	0.0251
GUGUGGUGUGUUGGACCCUAACACAUCGCG [gtspaired]	-0.332
